Data reported in paper PMC6451091.
The list shows a part of the results. For part of these data: At the low end of the ranking the order means little. For part of these data: Measured with an extract: partners may take part in the binding.

Legend:
Details in all cases: 20 mM HEPES pH 7.9, 100 mM NaCl, 1 mM DTT, 0.2 mg/mL BSA, 0.02% Triton X-100, 2% milk, 0.4 mg/mL salmon testes DNA; 1 h; temperature not stated; high values mean tight binding; double strand, one strand shown; sequences stand for … in GCCTAGCAC…GTGCTAGGTCTTGATTCGCTTGACGCTGCTG
[1] = target: PU.1 (IVT) (UniProt P17947); experiment: protein-binding microarray (PBM)
[2] = target: PU.1 (endogenous, THP-1 nuclear extract) (UniProt P17947); experiment: nuclear extract protein-binding microarray (nextPBM)
[3] = target: T1, FLI1 (endogenous, THP-1 nuclear extract) (UniProt Q01543); experiment: as above
T1 sequence: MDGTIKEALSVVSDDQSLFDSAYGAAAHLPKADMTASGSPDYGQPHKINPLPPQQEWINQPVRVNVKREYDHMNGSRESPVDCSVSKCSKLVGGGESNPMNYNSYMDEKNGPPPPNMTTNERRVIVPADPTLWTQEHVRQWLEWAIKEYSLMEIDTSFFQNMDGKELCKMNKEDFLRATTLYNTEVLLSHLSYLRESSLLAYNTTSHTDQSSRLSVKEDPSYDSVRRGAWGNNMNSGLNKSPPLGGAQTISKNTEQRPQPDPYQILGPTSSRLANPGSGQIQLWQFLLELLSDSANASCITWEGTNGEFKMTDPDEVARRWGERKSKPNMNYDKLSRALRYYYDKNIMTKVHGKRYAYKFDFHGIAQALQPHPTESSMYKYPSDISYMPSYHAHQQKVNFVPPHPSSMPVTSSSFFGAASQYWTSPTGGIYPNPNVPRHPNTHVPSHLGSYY

[4] = tested on: PU.1 (endogenous, THP-1 nuclear extract) + IRF8 (endogenous, THP-1 nuclear extract); experiment: as above

Sequence	binding signal [1] [z-score]	binding signal [2] [z-score]	binding signal [3] [z-score]	binding signal [4] [z-score]
GCGTGTGACGCGGGGACGCC	-0.72	-0.12	-0.455	1.16
TGCAGGGCTCCCTCACAGTA	-0.415	-0.113	-0.782	0.469
TGGCCCAGAGCCGCCAAGTT	-0.633	-0.154	-0.683	-0.125
AGCGGCTTCTTCAGAGCACG	-0.0347	-0.49	-0.85	-0.154
AGGGGACGCATTCTAACCAC	-0.366	-0.612	-0.774	0.404
TCCGCCCCTTCCAGGCAAGA	-0.209	-0.22	-0.338	-0.595
GACATTTTAGGAAAAGAGAA	5.87	6.34	2.54	0.0826
CAAAGATCTTTGTTATTCAT	-0.209	-0.587	0.125	-0.811
GGAGTATGGCAGAAGAACCA	0.189	-0.252	-0.683	-1.25
TGAAACAGGAAGTGCAACCA	6.44	6.6	5.12	7.07
CACAAGGCTGCGTGAAACTC	-0.811	-0.381	-0.992	1.86
CAGTTAGGACTCAGTTATTT	-0.555	-0.158	-0.511	-1.14
TTCAGGGCTGCGTGAAAGTT	-0.0108	-0.013	-0.42	1.19
CATGTGCTACTACTCTGAGC	-0.184	-0.693	-0.64	-0.596
ATTTTGACTGCCTGAAACTG	-0.512	-0.74	0.0636	2.52
TCCCTTCCATGGACAGGGGA	-0.68	-0.471	0.172	-2.01
GAATCTGTACTTCTCTTTTT	3.14	3.68	0.73	-0.69
CATGACATACAGAAATGGGT	-0.0127	-0.0731	-0.08	-0.0229
